Data as given in PubChem BioAssay AID624296 (National Center for Advancing Translational Sciences (NCATS), 2012).
Out of some 350,000 compounds screened, about 9,900 (2.8%) were called active. The shares of active, inactive and inconclusive entries below differ from those in the screen. Calls follow the shape of the dose curve; as a rule, active = well fitted activation curve with a large enough effect; inconclusive = small, poorly fitted or top-dose-only effect; inactive = no such curve, though single readings can be large or run the other way. Potencies of inconclusive entries are left out as doubtful fits.

Assay: A quantitative high throughput screen for small molecules that induce DNA re-replication in MCF 10a normal breast cells. Also: nearly all actives have a fitted effect of over 50% in size.
Details: MCF 10A DNA re-replication, Hoechst nuclear intensity, 48 h; series mostly up to 46.1 µM
Potency is read from the fitted curve at half-maximal effect; tags tell the direction and shape of the fitted curve.

Structure (SMILES)	Potency
Cc1ccc2cccc(NC(=S)NC(=O)c3c(Br)cnn3C)c2n1	inconclusive [activator, single point]
O=C(NCC1CC1)c1ccc(Oc2cc(Cl)cc(Cl)c2)o1	inconclusive [activator, partial curve, poor fit]
CCOCCCn1c(=NC(C)=O)c(C#N)cc2c(=O)n3cccc(C)c3nc21	inconclusive [activator, partial curve, poor fit]
Cn1c(=O)c2c(nc(CN3CCN(c4cccc(Cl)c4)CC3)n2CCc2ccccc2)n(C)c1=O	inconclusive [activator, single point]
COc1ccc(S(=O)(=O)N2CCCCCC2)cc1C(=O)N(C)Cc1ccc(Cl)cc1Cl	active: 2.06 µM
O=C1c2ccccc2S(=O)(=O)c2cc(N3CCN(C(=O)c4ccccc4)CC3)ccc21	inconclusive [activator, full curve, poor fit]
O=C(NCC(=O)N(Cc1ccccc1)C(C(=O)NC1CCCCC1)c1ccco1)c1ccco1 (stereo unspecified)	inconclusive [activator, partial curve, poor fit]
CCCOc1ccc(C(=O)NNC(=S)NC(=O)CC)cc1	active: 16.4 µM
CC(=O)c1ccc(Nc2ccc(-c3ccccc3C)nn2)cc1	active: 25.9 µM
O=C1c2cccc3cc(Br)cc(c23)C(=O)N1Nc1ccccc1	inactive
NNc1nc2c(-c3ccc(F)cc3)nnn2c2ccccc12	active: 23.1 µM
Cc1cccc([C@H]2[C@@H]3C=CC[C@@H](C)[C@@H]3C(=O)N2Cc2ccccc2)c1	inconclusive [activator, single point]
CCOC(=O)/C(N=Nc1c(Br)cc(Br)cc1Br)=C(\C)O	inconclusive [activator, partial curve, poor fit]
COc1ccc(CNC(=S)Nc2ccc(F)c(Cl)c2)cc1	inconclusive [activator, partial curve, poor fit]
CCOC(=O)C(=O)NNc1ccccc1OC	inactive
COc1ccc(OCC(=O)N2CCc3c([nH]c4ccccc34)C2c2ccccn2)cc1 (stereo unspecified)	inactive
O=C(c1ccc(NS(=O)(=O)c2ccc3c(c2)OCCO3)cc1)N1CCCCC1	inactive
COc1ccc(C2c3ccc4ccccc4c3Oc3ncn(CCN(C)C)c(=N)c32)cc1 (stereo unspecified)	active: 20.6 µM
c1ccc(CCNc2ccnc3cc4ccccc4cc23)cc1	active: 16.4 µM
COC(=O)CCc1c(C)c(C#N)c2nc3ccccc3n2c1N1CCCC1	inconclusive [activator, single point]
C[C@@H]1CC2OC(=O)[C@@]3(C)C(=O)CC[C@@](C)(C23)[C@@]1(O)CCc1ccoc1 (stereo partly specified)	inactive
CCCCCNCC(=O)Nc1cccc(C(=O)Nc2cccc(C(F)(F)F)c2)c1	inconclusive [activator, single point]
CC1CN(C(=O)COC(=O)/C=C/c2cccc([N+](=O)[O-])c2)CC(C)O1 (stereo unspecified)	inactive
CC(=O)/C(=N/Nc1ccccc1)N1CCOCC1	inactive

Structure (SMILES)	Potency
COC(=O)C1CN(C(=O)c2cccc(OC(F)F)c2)c2ccccc2O1 (stereo unspecified)	inconclusive [activator, partial curve, poor fit]
C=CCc1ccc(O)c(-c2cc(CC=C)ccc2O)c1	inconclusive [activator, partial curve, poor fit]
O=[N+]([O-])c1ccccc1N=Nc1ccc(O)cc1O	inconclusive [activator, single point]
O=C(NCC1CCCCC1)c1cc2ccccc2cc1O	active: 18.4 µM
CCn1c(CNc2ccc(F)cc2)nnc1SCC(=O)Nc1ccc(OC)cc1OC	inactive
Cc1ccc(NC(=O)CCl)c(C)c1	inconclusive [activator, single point]
C=CCn1c(C#N)c(N)sc1=N	inconclusive [activator, single point]
Cc1ccccc1OCCn1cc(C=O)c2ccccc21	inconclusive [activator, full curve]
COc1c(Cl)cc(Cl)cc1C(=O)Nc1ccc(NC(=O)c2cccs2)cc1	inactive
CN(C)S(=O)(=O)c1cc(NC(=O)CN2C(=O)NC3(CCCc4ccccc43)C2=O)ccc1Cl (stereo unspecified)	inconclusive [activator, partial curve, poor fit]
Cc1cc(OCC(=O)NNC(=O)c2cccs2)ccc1Br	inactive
Cc1cc(C)c(NC(=O)CN(C)S(=O)(=O)c2ccc3c(c2)n(C)c(=O)c(=O)n3C)c(C)c1	inconclusive [activator, single point]
COc1ccccc1-c1cc(C(=O)N2CCOCC2)no1	inactive
N=c1c2c(-c3ccccc3)c(-c3ccccc3)oc2ncn1Cc1ccco1	inconclusive [activator, single point]
COc1cc([C@H]2c3[nH]c4ccccc4c3C[C@H]3C(=O)N4[C@@H](c5cc(OC)c(OC)c(OC)c5)c5[nH]c6ccccc6c5C[C@H]4C(=O)N23)cc(OC)c1OC	inconclusive [activator, full curve, poor fit]
CCOC(=O)N1CCN(C(=O)c2cnn3c(C)c(Cc4ccc(C)cc4)c(C)nc23)CC1	inactive
CC(NCC(O)c1ccc([N+](=O)[O-])cc1)C12CC3CC(CC(C3)C1)C2 (stereo unspecified)	inactive
COc1ccc(-c2cc(C(F)F)n3ncc(C(=O)N4CCc5ccccc5C4)c3n2)cc1	inconclusive [activator, partial curve, poor fit]
Cc1ccsc1C1Nc2ccccc2-c2nc3ccccc3n21 (stereo unspecified)	inconclusive [activator, partial curve, poor fit]
Cc1ccc(NC(=O)C2C3CC4OC(=O)C2C4C3)cc1Cl (stereo unspecified)	active: 3.66 µM
Cc1ccc(S(=O)(=O)N2CCOCC2)cc1C(=O)NCCc1ccc(Cl)cc1	inactive
O=C(COc1ccc(F)cc1)c1ccc2c(c1)CCCC2	active: 10.3 µM
O=C(c1cc2ccccc2cc1O)N1CCN(c2cccc(Cl)c2)CC1	inconclusive [activator, single point]
CCCC1S/C(=N/N=C/c2ccc(C)cc2)N(Cc2ccc(OC)cc2)C1=O (stereo unspecified)	inactive

Structure (SMILES)	Potency
O=C(O)CCS(=O)(=O)c1cccc2cccnc12	inactive
NC(=S)NN=C1c2cc(OCCN3CCOCC3)ccc2-c2ccc(OCCN3CCOCC3)cc21	inconclusive [activator, partial curve, poor fit]
Clc1cccc(Cl)c1COn1nnc2ccccc21	inconclusive [activator, single point]
CCN(Cc1ccccc1)C(=O)Cn1c(C(C)O)nc2ccccc21 (stereo unspecified)	active: 0.731 µM
CCN(C(=O)COC(=O)Cc1cccc2ccccc12)C1CCS(=O)(=O)C1 (stereo unspecified)	inconclusive [activator, partial curve, poor fit]
O=C(c1ccc2c(=O)n3c(nc2c1)CCCCC3)N1CCN(C(c2ccccc2)c2ccccc2)CC1	inconclusive [activator, single point]
O=C(NCc1ccc(F)cc1)C1CCN(S(=O)(=O)c2ccc3c(c2)OCCCO3)CC1	inactive
Cc1ccc(C(C)C)c(OCC(=O)Nc2ccc(N3CCOCC3)cc2N2CCOCC2)c1	inconclusive [activator, full curve, poor fit]
CC(=O)N1CCN(C(=O)c2ccc(-c3cccc(C(F)(F)F)c3)o2)CC1	inactive
O=C(c1cc2ccccc2cc1O)N1CCCC(C(F)(F)F)C1 (stereo unspecified)	inconclusive [activator, single point]
CCCN(S(=O)(=O)c1ccc(OCC)cc1)S(=O)(=O)c1cccs1	inconclusive [activator, partial curve]
Cc1ccc([N+](=O)[O-])cc1NC(=S)NC(=O)c1ccco1	inconclusive [activator, single point]
COc1cccc(CN(C)C(=O)/C=C/c2ccc(S(=O)(=O)N3CCCCCC3)cc2)c1	inactive
Cc1cc(C2=NNC(=NCCc3ccccc3)SC2)c(C)n1CC1CCCO1 (stereo unspecified)	inactive
COc1ccccc1C(=O)NC(=S)Nc1ccc(Cc2ccncc2)cc1	inconclusive [activator, single point]
Cc1ccccc1Nc1nc(N)nc(CSc2ccc(F)cc2)n1	inconclusive [activator, single point]
CC(C)N1CCNCC1	inactive
COc1ccc2oc(=O)c(-c3nc4ccccc4o3)cc2c1	inconclusive [activator, partial curve, poor fit]
CC(C)(CNC(=O)c1cccc(F)c1)CNC(=O)c1cccc(F)c1	inactive
CCOC(=O)N1CCC(Nc2nc3ccccc3n3nnnc23)CC1	inconclusive [activator, partial curve, poor fit]
O=C(NNC(=O)c1cc(-c2ccc(Cl)cc2)nc2ccccc12)c1csc(N2CCOCC2)n1	inconclusive [activator, partial curve, poor fit]
CC1=C(C(=O)OCc2ccccc2)C(c2ccccc2Cl)NC(=O)N1CCCCCC(=O)O (stereo unspecified)	inconclusive [activator, single point]
Cn1cc(SCC(=O)Nc2nc3ccccc3s2)c2ccccc21	inconclusive [activator, single point]
